The list shows a part of the results.

This assay addresses T1, MBP-FoxP1dN (Mus musculus, UniProt P58462 326-579).
T1 sequence: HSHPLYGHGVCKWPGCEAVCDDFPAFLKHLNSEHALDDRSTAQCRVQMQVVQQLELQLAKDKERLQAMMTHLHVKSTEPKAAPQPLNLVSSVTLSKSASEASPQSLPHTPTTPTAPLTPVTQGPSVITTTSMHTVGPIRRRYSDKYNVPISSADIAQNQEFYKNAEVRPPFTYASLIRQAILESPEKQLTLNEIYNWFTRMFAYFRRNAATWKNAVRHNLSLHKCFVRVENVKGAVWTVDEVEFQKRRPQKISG
The experiment in a line: PD-seq (MBP pull-down with sequencing); 20 mM Tris-HCl pH 7.5, 100 mM NaCl, 1.5 mM MgCl2, 0.4 uM protein, 0.1 uM dsDNA library, 30 min, room temperature, amylose pull-down; high values mean tight binding. Conditions: protein: recombinant; tags: His6-MBP; chain copies: 2; dsDNA, one strand shown. The procedure, abridged: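 Binding is given as reads-per-million enrichment, pull-down over input, with replicates pooled. The bait was an N-terminus-lacking mouse FoxP3 or FoxP1 fragment with a His6-MBP tag, expressed in E. coli and used at 0.4 µM with 0.1 µM Klenow-filled degenerate double-stranded DNA library for 30 min at room temperature in Tris pH 7.5 buffer with NaCl and MgCl2. Amylose resin pull-down with three washes was followed by proteinase K release, PCR barcoding and Illumina sequencing.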
As for “GATGATTGTTCTCCCAGCTGATGAATTGAACGGGTCGAGTAAACAAATTTTCCTAATCTTTCTGTTCAAGCGCCATCTAC”, the binding signal is 0.773 RPM ratio (pull-down/input). To “GATGATTGTTCTCCCAGCTGATGAATTCTTTACTTCGAGTAAACAAATTTTCCTAATCTTTCTGTTCAAGCGCCATCTAC” belongs 0.993 RPM ratio (pull-down/input). As for “GATGATTGTTCTCCCAGCTGATGAATTCTTTAGGTCGAGTAAACAAATTTTCCTAATCTTTCTGTTCAAGCGCCATCTAC”, the binding signal is 0.821 RPM ratio (pull-down/input). In the case of “GATGATTGTTCTCCCAGCTGATGAATTGCTGACCTCGAGTAAACAAATTTTCCTAATCTTTCTGTTCAAGCGCCATCTAC” it was 0.907 RPM ratio (pull-down/input); in that of “GATGATTGTTCTCCCAGCTGATGAATTTAGCACGTCGAGTAAACAAATTTTCCTAATCTTTCTGTTCAAGCGCCATCTAC”, 0.886 RPM ratio (pull-down/input); in that of “GATGATTGTTCTCCCAGCTGATGAATTAGGACGATCGAGTAAACAAATTTTCCTAATCTTTCTGTTCAAGCGCCATCTAC”, 0.899 RPM ratio (pull-down/input). In the case of “GATGATTGTTCTCCCAGCTGATGAATTGATCACTTCGAGTAAACAAATTTTCCTAATCTTTCTGTTCAAGCGCCATCTAC” it was 1.02 RPM ratio (pull-down/input). To “GATGATTGTTCTCCCAGCTGATGAATTGTGATTATCGAGTAAACAAATTTTCCTAATCTTTCTGTTCAAGCGCCATCTAC” belongs 1.74 RPM ratio (pull-down/input); to “GATGATTGTTCTCCCAGCTGATGAATTGAGACTATCGAGTAAACAAATTTTCCTAATCTTTCTGTTCAAGCGCCATCTAC”, 0.923 RPM ratio (pull-down/input); to “GATGATTGTTCTCCCAGCTGATGAATTCACTGTTTCGAGTAAACAAATTTTCCTAATCTTTCTGTTCAAGCGCCATCTAC”, 0.989 RPM ratio (pull-down/input). For “GATGATTGTTCTCCCAGCTGATGAATTTTGACGCTCGAGTAAACAAATTTTCCTAATCTTTCTGTTCAAGCGCCATCTAC”, the binding signal is 0.967 RPM ratio (pull-down/input). To “GATGATTGTTCTCCCAGCTGATGAATTCCGAACCTCGAGTAAACAAATTTTCCTAATCTTTCTGTTCAAGCGCCATCTAC” belongs 0.751 RPM ratio (pull-down/input). To “GATGATTGTTCTCCCAGCTGATGAATTTTACTCCTCGAGTAAACAAATTTTCCTAATCTTTCTGTTCAAGCGCCATCTAC” belongs 0.83 RPM ratio (pull-down/input). In the case of “GATGATTGTTCTCCCAGCTGATGAATTCGTACGTTCGAGTAAACAAATTTTCCTAATCTTTCTGTTCAAGCGCCATCTAC” it was 0.931 RPM ratio (pull-down/input); in that of “GATGATTGTTCTCCCAGCTGATGAATTTGCCGAGTCGAGTAAACAAATTTTCCTAATCTTTCTGTTCAAGCGCCATCTAC”, 0.837 RPM ratio (pull-down/input); in that of “GATGATTGTTCTCCCAGCTGATGAATTTTTGTCGTCGAGTAAACAAATTTTCCTAATCTTTCTGTTCAAGCGCCATCTAC”, 1.24 RPM ratio (pull-down/input). For “GATGATTGTTCTCCCAGCTGATGAATTACACGCCTCGAGTAAACAAATTTTCCTAATCTTTCTGTTCAAGCGCCATCTAC”, the binding signal was 1.1 RPM ratio (pull-down/input). To “GATGATTGTTCTCCCAGCTGATGAATTTCCAGCATCGAGTAAACAAATTTTCCTAATCTTTCTGTTCAAGCGCCATCTAC” belongs 1 RPM ratio (pull-down/input); to “GATGATTGTTCTCCCAGCTGATGAATTTTTTGCTTCGAGTAAACAAATTTTCCTAATCTTTCTGTTCAAGCGCCATCTAC”, 0.938 RPM ratio (pull-down/input). In the case of “GATGATTGTTCTCCCAGCTGATGAATTCCCGGCCTCGAGTAAACAAATTTTCCTAATCTTTCTGTTCAAGCGCCATCTAC” it was 0.725 RPM ratio (pull-down/input); in that of “GATGATTGTTCTCCCAGCTGATGAATTCTAGCTCTCGAGTAAACAAATTTTCCTAATCTTTCTGTTCAAGCGCCATCTAC”, 0.804 RPM ratio (pull-down/input); in that of “GATGATTGTTCTCCCAGCTGATGAATTTCAACGGTCGAGTAAACAAATTTTCCTAATCTTTCTGTTCAAGCGCCATCTAC”, 0.82 RPM ratio (pull-down/input). Consider “GATGATTGTTCTCCCAGCTGATGAATTGGAGTGATCGAGTAAACAAATTTTCCTAATCTTTCTGTTCAAGCGCCATCTAC”, for which the binding signal is 0.888 RPM ratio (pull-down/input). To “GATGATTGTTCTCCCAGCTGATGAATTGAATAGGTCGAGTAAACAAATTTTCCTAATCTTTCTGTTCAAGCGCCATCTAC” belongs 0.931 RPM ratio (pull-down/input); to “GATGATTGTTCTCCCAGCTGATGAATTTCTACCATCGAGTAAACAAATTTTCCTAATCTTTCTGTTCAAGCGCCATCTAC”, 0.994 RPM ratio (pull-down/input); to “GATGATTGTTCTCCCAGCTGATGAATTATGGTTCTCGAGTAAACAAATTTTCCTAATCTTTCTGTTCAAGCGCCATCTAC”, 0.943 RPM ratio (pull-down/input). “GATGATTGTTCTCCCAGCTGATGAATTGAGACGGTCGAGTAAACAAATTTTCCTAATCTTTCTGTTCAAGCGCCATCTAC”: the binding signal is 0.782 RPM ratio (pull-down/input). In the case of “GATGATTGTTCTCCCAGCTGATGAATTTAATCGGTCGAGTAAACAAATTTTCCTAATCTTTCTGTTCAAGCGCCATCTAC” it was 0.85 RPM ratio (pull-down/input); in that of “GATGATTGTTCTCCCAGCTGATGAATTGCAGTACTCGAGTAAACAAATTTTCCTAATCTTTCTGTTCAAGCGCCATCTAC”, 1.04 RPM ratio (pull-down/input); in that of “GATGATTGTTCTCCCAGCTGATGAATTAACAAGTTCGAGTAAACAAATTTTCCTAATCTTTCTGTTCAAGCGCCATCTAC”, 1.13 RPM ratio (pull-down/input). To “GATGATTGTTCTCCCAGCTGATGAATTTTCGAGGTCGAGTAAACAAATTTTCCTAATCTTTCTGTTCAAGCGCCATCTAC” belongs 0.866 RPM ratio (pull-down/input).
